Data: paper PMC12136788
Some of the results follow.

T1: UNK ZnF1-3 (human, UniProt Q9C0B0 31-174)
T1 sequence: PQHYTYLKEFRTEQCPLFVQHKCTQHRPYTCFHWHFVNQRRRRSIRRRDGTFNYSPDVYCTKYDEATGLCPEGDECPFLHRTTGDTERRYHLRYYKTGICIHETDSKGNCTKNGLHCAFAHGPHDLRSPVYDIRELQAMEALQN

B1: chr9:3385818:3385819:+_ENSMUSG00000025899_ENSMUST00000053407|mus_mus|FALSE|FALSE (ssRNA)
RNA: GGGAGUUCUACAGUCCGACGAUCCCUACAAAAGUUGGAGUUAUAAAAAGAUUUUAACACAAAAGUUUAUCUUCAAAUGCUAUAUAUAUACAAACAUCACAGACUUUUCACAAGUUAAUGUCAAACACCAUACUUAAAAGGCAUCAACAGAGGAUUGAGCAUCA
B2: chr12:39756943:39756944:-_ENSG00000139116_ENST00000544797|hu_mus|hu_hu_hu_mus_False|1_8 (ssRNA)
RNA: GGGAGUUCUACAGUCCGACGAUCGGUUUGGCUGUUACCCCCAAGGGAAUCCUGCAAGAGUCUUGUCAGCUUAGAGUCUCUGUAAGGGACAUGGGUGGCUCUCUUGCUCUUGUCCCCCAAGGCGCUGAUUACAUUGCCAAGUGCCAACAGAGGAUUGAGCAUCA
B3: 39582523_39587115_1434_3pUTR_ENSMUSG00000025862_ENSMUST00000069619|mouse|control|control (ssRNA)
RNA: GGGAGUUCUACAGUCCGACGAUCGGUGAGCUGAAUAAACCAGAUGAUAGACAUUUUCACAAUCUUCUGCAGUUAGAACUUCUUCACUACUCUGUAAAACAAGAGUGAGUAACUUUAUUGCUUGUACUGCAACAUCAUAUUCUUCAACAGAGGAUUGAGCAUCA
B4: 88685193_88685313_3913_3pUTR_ENSG00000107779_ENST00000372037|human|control|control (ssRNA)
RNA: GGGAGUUCUACAGUCCGACGAUCUAUUAUCCAUAUGCAAAUUUACUUAUCUUGAUGAACACUUCAGACUUUAAUUAUGGCAGAUGAAACUUAUUAAUCAAAAUGGUUAAGGCAAUUUUCAAAUUUGUGAAAUUUGAUGUGCAGCAACAGAGGAUUGAGCAUCA
B5: chr1:46159212:46159213:+_ENSG00000159596_ENST00000372025|hu_hu|motif|central (ssRNA)
RNA: GGGAGUUCUACAGUCCGACGAUCUCUGAUCCCACCCAAGAAAGAUAGGAAACUGGCUCCAUAAGCCAUCUGAGUAAAAGCGGAUAUGGGAAUAUAAGUUUUUGUCAUCAGCAUGACCAGUGGUGGAGCAACGAAGGGGAUUAGCAACAGAGGAUUGAGCAUCA
B6: chr18:33606911:33606912:-_ENSG00000141425_ENST00000399022|hu_mus|motif|central (ssRNA)
RNA: GGGAGUUCUACAGUCCGACGAUCUUCCAAUUUAUGUUCUUUCUCUGCAAGGGCUUCCUUUUGACAACGAAGAAAAUCUGCGGACAUUCGGGUGAGUUGCUUUCUAUCAUCUAUUUCUGCCGCCAGUCUGCCAUUAUAAUCUGCCAACAGAGGAUUGAGCAUCA
B7: chr15:40510687:40510688:+_ENSG00000156970_ENST00000287598|hu_hu|FALSE|FALSE (ssRNA)
RNA: GGGAGUUCUACAGUCCGACGAUCCCAGAAGGACCCAUCCCAGAAGACCUGUAGGUGUUCCUUGAACAAUAGUAAAUGUGCUAAAUCUGCUAUACCAAACAGGUCUACCUGGUAGGGAGAAGAACAGUUAGCCAGGAUCUUUUGCAACAGAGGAUUGAGCAUCA
B8: chr16:94651144:94651145:+_ENSMUSG00000040785_ENSMUST00000117648|mus_hu|mus_mus_mus_hu_True|68_108 (ssRNA)
RNA: GGGAGUUCUACAGUCCGACGAUCAUUCUCUUGGAUCAAGUGGCGAAUAACAUAGUCCACUGCUUCAUGGACAAAAUUUCUGCUAGAAAAACAGGUUGUAUAGUCUUCUGUGCUCAAAACUUUCCAAGAAAGCAAUUCUUUGAGCAACAGAGGAUUGAGCAUCA
B9: chr4:128759998:128759999:+_ENSMUSG00000028793_ENSMUST00000168461|mus_hu|FALSE|FALSE (ssRNA)
RNA: GGGAGUUCUACAGUCCGACGAUCUGCACCAAGACUGGCUGUGUCUUUGGGGAAAAUUUCCUUUUGGACAUCGGCUUGAACUUCUAACCUGCUAUAUUUUCCCUUGCCACUGGAGAGAAUGCCGCCACUCAGCGUGCCCCCUGACAACAGAGGAUUGAGCAUCA
B10: chr2:9628331:9628332:+_ENSG00000134330_ENST00000482918|hu_hu|motif|central (ssRNA)
RNA: GGGAGUUCUACAGUCCGACGAUCUUCUGCUACAUCCCGCCAGUAAGGAAGCAGCAAAGGUAGAGAAGAGACCUUUUUCUCGGUCAAAGGCCAGAGAUGCGAGAACAAAAAUUCAUUCCCCUUUGGAGACAAAUGUAGUCCAUCCAACAGAGGAUUGAGCAUCA
B11: chr9:100389865:100389866:-_ENSG00000136925_ENST00000341170|hu_hu|motif|central (ssRNA)
RNA: GGGAGUUCUACAGUCCGACGAUCACAGUGAAGCAGAUAUUCCUUUCAGUUAAAUACCUCCCGCCAGUCCUGAUCCUUUCGGAGGUCUCUCUUCCCUGCACUGUCUCCGCCUAGCAAUUGUCACUGCUCACCGCCCUCGAGCCUCAACAGAGGAUUGAGCAUCA
B12: chr4:42069135:42069136:+_ENSG00000014824_ENST00000513699|hu_hu|FALSE|FALSE (ssRNA)
RNA: GGGAGUUCUACAGUCCGACGAUCGCUGCUAUUAUAACUCCCAAGACUGCAGCAGUAUCCUCCAAUAAUAUCACAUUUGUACUAGGAUCACGACUUUCCAUUACAUACUUGUAAAAUGACAUUCCUUUAGCCCGAGCAUUCCUACAACAGAGGAUUGAGCAUCA
B13: chr4:17845017:17845018:+_ENSG00000109805_ENST00000514176|hu_mus|hu_hu_hu_mus_False|68_78 (ssRNA)
RNA: GGGAGUUCUACAGUCCGACGAUCGCUCUCUUAACUUGUAUCUUCAUUAAGGAACUCGCAAGGUUAAGUUUACUUUUUCUGUAGCGCAGCUGUUUUGGCUCGUCUGGGUAAUCUCAUCUUCAUUUCUGAUGGUGGUUCAUGAUCCAACAGAGGAUUGAGCAUCA
B14: chr1:163117127:163117128:-_ENSG00000143248_ENST00000313961|hu_mus|hu_hu_hu_mus_False|48_58 (ssRNA)
RNA: GGGAGUUCUACAGUCCGACGAUCUGCUACAAAGGAUGUAACUCAACUCACAGGGCAACUUUUGGAAGCCUGACCAGAUUACUACUUGAUUAACUCCUUAUAAAAUUCAGAGCGCACAAAGCGGGGCAGAGAAUCCUUCUCCAUCAACAGAGGAUUGAGCAUCA

The binders below were run against T1, UNK ZnF1-3 (assay: nsRBNS (natural sequence RNA bind-n-seq); RBNS binding buffer (assumed for nsRBNS): 25 mM Tris pH 7.5, 150 mM KCl, 3 mM MgCl2, 0.01% Triton X-100, 500 ug/ml BSA, 20 U/ml SUPERase-In, 4 C; UNK is unkempt and MSI1 is Musashi-1; names of the RNAs are library labels; protein concentration not given here; high values mean tight binding).

Row | Binder | binding signal
1 | B1 | 0.859 enrichment R
2 | B2 | 0.492 enrichment R
3 | B3 | 0.764 enrichment R
4 | B4 | 1.22 enrichment R
5 | B5 | 1.68 enrichment R
6 | B6 | 0.682 enrichment R
7 | B7 | 0.345 enrichment R
8 | B8 | 0.52 enrichment R
9 | B9 | 0.905 enrichment R
10 | B10 | 1.31 enrichment R
11 | B11 | 1.02 enrichment R
12 | B12 | 1.11 enrichment R
13 | B13 | 0.352 enrichment R
14 | B14 | 1.31 enrichment R
